Reference: PubChem BioAssay AID485294 (National Center for Advancing Translational Sciences (NCATS), 2010)
Where “and” joins values, the source holds several entries; their conditions need not be identical. Equal values may be shown once. The campaign covered roughly 370,000 compounds. About 150 (0.041%) were called active. Inconclusive results, whose numbers are uncertain, are shown with a selection of clear calls. Calls follow the shape of the dose curve; as a rule, active = well fitted inhibition curve with a large enough effect; inconclusive = small, poorly fitted or top-dose-only effect; inactive = flat fitted curve, though single readings scatter. Where the call is inconclusive, the potency comes from a doubtful curve fit.

biological target: Beta-lactamase (Escherichia coli (strain K12)) (UniProt P00811); test: qHTS Inhibitors of AmpC Beta-Lactamase (assay with detergent); details: AmpC hydrolysis of nitrocefin, absorbance 480 nm, 0.01% Triton; activity change, negative = inhibition: at 114 µM (top of the series); also: nearly all actives have a fitted effect of over 25% in size;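 as to activity change, negative = inhibition: 0% = no-compound wells and -100% = no-enzyme wells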
Procedure, shortened: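 AmpC (5.3 nM in the dispensed reagent) in 20 mM phosphate pH 7.0 with 0.01% (detergent screen) or 0.0001% Triton X-100 was preincubated with compounds for 15 min at room temperature. Nitrocefin was then added from an 800 uM solution, and hydrolysis was followed at 480 nm.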
Potency is read from the fitted curve at half-maximal effect; tags tell the direction and shape of the fitted curve.

Sequence of UniProt P00811 (P00811 whole entry, looked up): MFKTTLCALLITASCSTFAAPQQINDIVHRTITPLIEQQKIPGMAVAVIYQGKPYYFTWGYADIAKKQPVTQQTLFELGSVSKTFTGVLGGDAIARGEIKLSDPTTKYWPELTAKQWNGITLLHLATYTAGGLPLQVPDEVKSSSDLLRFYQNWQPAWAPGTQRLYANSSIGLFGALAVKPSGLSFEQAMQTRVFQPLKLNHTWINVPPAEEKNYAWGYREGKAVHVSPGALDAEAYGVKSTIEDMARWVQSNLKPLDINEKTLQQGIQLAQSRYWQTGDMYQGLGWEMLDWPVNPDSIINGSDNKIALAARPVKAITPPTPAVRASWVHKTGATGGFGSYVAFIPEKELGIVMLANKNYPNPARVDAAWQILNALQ

Row | SMILES | activity change, negative = inhibition | Potency
1 | C=CC1=C(C(=O)O)N2C(=O)C(NC(=O)Cc3ccccc3)C2SC1 (stereo not drawn) | inactive: -2.81% | 
2 | O=C(NC1CC2CCCC(C1)N2C(=O)NC1CCCCC1)c1ccc(F)cc1 (stereo not drawn) |  | inconclusive: 1.41 µM [inhibitor, full curve]
3 | Cc1sc2ncnc(N=Nc3c(O)[nH]c4ccccc34)c2c1C |  | inconclusive: 5.62 µM [inhibitor, full curve, poor fit]
4 | NC(=O)c1ccc(NC(=O)COC(=O)C2CC(=O)N(Cc3ccccc3)C2)cc1 (stereo not drawn) |  | inconclusive: 3.98 µM [inhibitor, single point]
5 | Cc1ccc2ncccc2c1[N+](=O)[O-] |  | inconclusive: 35.5 µM [inhibitor, full curve]
6 | O=C(CCn1cnc2ccccc2c1=O)Nc1ccc2c(c1)OCCO2 |  | inconclusive: 0.708 µM [inhibitor, full curve, poor fit]
7 | Fc1ccc(Nc2c(-c3ccco3)nc3ccccn23)cc1 |  | inconclusive: 50.1 µM [inhibitor, partial curve, poor fit] and inconclusive: 631 nM [inhibitor, full curve, poor fit]
8 | C=CCn1c(Cc2c[nH]c3ccccc23)n[nH]c1=S | inactive: -1.2% | 
9 | CCN1CCN(C(=O)Nc2cccc3ccccc23)CC1 |  | inconclusive: 44.7 µM [inhibitor, full curve, poor fit]
10 | CCOc1ccc(CCNC(=O)C2CCN(Cc3nc(-c4ccccc4C)oc3C)CC2)cc1OCC |  | inconclusive: 70.8 µM [inhibitor, single point]
11 | Cn1c(O)c(/C=N/NC(=O)c2ccncc2)c(=O)n(C)c1=S |  | inconclusive: 25.1 µM [inhibitor, full curve, poor fit]
12 | C=CCSc1nnc(NC(=O)c2cccc(S(=O)(=O)N3CCOCC3)c2)s1 |  | inconclusive: 1.78 µM [inhibitor, partial curve, poor fit]
13 | O=C(c1cccc2ccccc12)N1CCN(c2ccc([N+](=O)[O-])c(N3CCOCC3)c2)CC1 |  | inconclusive: 39.8 µM [inhibitor, partial curve]
14 | Cn1nccc1-c1cc(Cl)cc(Cl)c1O | inactive: 6.89% | 
15 | Nn1c(SCC(=O)NNC(=O)c2ccccc2)nnc1-c1ccccc1F |  | inconclusive: 89.1 µM [inhibitor, partial curve]
16 | COc1ccc(-n2nc(C(=O)NCC(=O)N3CCCC3)c3ccccc3c2=O)cc1 |  | inconclusive: 0.631 µM [inhibitor, full curve, poor fit]
17 | CN(C)CCNC(=O)c1cc2c(s1)-c1ccccc1OC2 | inactive: -3.56% | 
18 | CCn1c(C)nc2cc(C(=O)N/N=C/c3ccccc3C)ccc21 |  | inconclusive: 0.562 µM [inhibitor, partial curve, poor fit]
